Experimental data from PubChem BioAssay AID720709 (National Center for Advancing Translational Sciences (NCATS), 2013).
About 520 (0.14%) of roughly 360,000 compounds were called active. The inconclusive results got no clear call from the source; some entries with a clear call stand among them for comparison. Calls follow the shape of the dose curve; as a rule, active = well fitted inhibition curve with a large enough effect; inconclusive = small, poorly fitted or top-dose-only effect; inactive = no such curve, though single readings can be large or run the other way. Potencies of inconclusive entries are left out as doubtful fits.

These compounds were tested against Rap guanine nucleotide exchange factor 3 (Homo sapiens) (UniProt O95398) (assay: qHTS for Antagonist of cAMP-regulated guanine nucleotide exchange factor 3 (EPAC1): primary screen). Conditions: EPAC1 GEF assay, Rap1b-BODIPY-GDP exchange fluorescence; activity change, negative = inhibition: at 115 µM (top of the series).
Chain of UniProt O95398 (O95398 whole entry, looked up): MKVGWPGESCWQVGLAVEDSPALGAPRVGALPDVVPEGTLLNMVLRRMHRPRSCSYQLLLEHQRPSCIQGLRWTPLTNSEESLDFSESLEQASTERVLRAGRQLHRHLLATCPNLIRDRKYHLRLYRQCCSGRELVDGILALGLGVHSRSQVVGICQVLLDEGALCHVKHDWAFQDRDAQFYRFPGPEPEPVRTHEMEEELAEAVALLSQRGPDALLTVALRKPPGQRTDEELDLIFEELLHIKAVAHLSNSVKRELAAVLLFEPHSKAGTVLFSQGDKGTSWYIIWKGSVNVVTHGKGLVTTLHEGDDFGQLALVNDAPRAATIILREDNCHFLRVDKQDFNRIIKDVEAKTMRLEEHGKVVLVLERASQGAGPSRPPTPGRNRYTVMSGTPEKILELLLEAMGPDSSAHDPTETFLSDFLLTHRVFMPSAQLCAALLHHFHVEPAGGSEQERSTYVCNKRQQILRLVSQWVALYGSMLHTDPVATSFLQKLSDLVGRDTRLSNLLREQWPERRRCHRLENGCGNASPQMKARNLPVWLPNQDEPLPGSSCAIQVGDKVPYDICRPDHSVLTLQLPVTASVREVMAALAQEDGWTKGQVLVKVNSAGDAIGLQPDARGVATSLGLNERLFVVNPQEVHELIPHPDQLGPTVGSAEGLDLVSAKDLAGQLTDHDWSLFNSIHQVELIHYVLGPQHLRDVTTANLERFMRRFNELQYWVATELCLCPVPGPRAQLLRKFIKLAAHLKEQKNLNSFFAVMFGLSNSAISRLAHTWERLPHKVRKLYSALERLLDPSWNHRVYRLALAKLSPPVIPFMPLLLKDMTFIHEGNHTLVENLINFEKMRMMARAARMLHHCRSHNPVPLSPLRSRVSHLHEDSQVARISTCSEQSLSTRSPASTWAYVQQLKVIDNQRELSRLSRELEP
Excerpt: In multi-cellular eukaryotic organisms, the effects of cAMP are transduced by two ubiquitously-expressed intracellular cAMP receptors, the classic protein kinase A/cAMP-dependent protein kinase (PKA/cAPK) and the more recently discovered exchange protein directly activated by cAMP/cAMP-regulated guanine nucleotide exchange factor (EPAC/cAMP-GEF). Both PKA and EPAC are ubiquitously expressed in all tissues, and an increase in intracellular cAMP levels will lead to the activation of both PKA and EPAC. Therefore, careful dissections of the individual role and relative contribution of EPAC and PKA within the overall cAMP signaling in various model systems are critical for further elucidating the mechanism of cAMP signaling. To date no EPAC-specific antagonists and agonist, as well as isoform-specific agonists have been reported, and developing EPAC-specific pharmacological probes to determine the physiological functions that EPAC play in the overall cAMP-mediated signaling remains a major challenge within the research field. Furthermore, identified regulators of EPAC may lead to new mechanism-based therapeutic strategies specifically targeting the EPAC / cAMP-signaling components as EPAC has been implicated to play important roles in major human pathological conditions such as diabetes, heart disease, and cancer. This qHTS will be used to screen the Molecular Libraries Small Molecule Repository (MLSMR) as a concentration-titration series using the NCGC unique quantitative screening (qHTS) platform to find inhibitors for EPAC1. In addition, this assay will also be used as a counterscreen for the EPAC2 qHTS. This fluorescent based assay is developed and validated for EPAC1 that measures exchange using EPAC effector Rap1 complex with BODIPY-GDP, a GDP analog with a tethered fluorophores. Inhibitors are identified by monitoring the change in fluorescence signal as the exchanged free BODIPY-GDP has a reduced fluorescence compared to Rap1-bound BODIPY-GDP. Decrease in signal (inhibition) is the desired outcome for the EPAC1 antagonist while no activity in this assay is desired for the EPAC2 antagonist counterscreen. de Rooij, J., Zwartkruis, F. J., Verheijen, M. H., Cool, R. H., Nijman, S. M., Wittinghofer, A., and Bos, J.L. (1998) Nature 396, 474-477 [2] Kawasaki, H., Springett, G. M., Mochizuki, N., Toki, S., Nakaya, M., Matsuda, M., Housman, D. E., and Graybiel, A. M. (1998) Science 282, 2275-2279 NIH Chemical Genomics Center [NCGC] NIH Molecular Libraries Probe Centers Network [MLPCN] MLPCN Grant: NS066510 Assay Submitter (PI): Xiaodong Cheng, The University of Texas, Medical Branch
Briefly, three uL of reagents (100 nM EPAC1, 250 nM RAP1B-BODIPY-GDP, 50 uM GDP) were dispensed into a 1536-well Greiner black solid-bottom medium binding assay plate. Controls and test compounds (23 nL) were transferred to the plate via a Kalypsys pin tool equipped with a 1536-pin array. The plates were centrifuged at 1,000 rpm for 15 seconds followed by 5 minute incubation at room temperature. The assay plates were read at 5 minute intervals for 30 minutes in the ViewLux plate reader using 480nm excitation and 540nm emission filters. The results were normalized to the […] positive control ATA and DMSO.
Also: nearly all actives have a fitted effect of over 50% in size.
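For activity change, negative = inhibition in this document: plate controls were vehicle for no effect and positive control for full effect.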
Potency is read from the fitted curve at half-maximal effect; tags tell the direction and shape of the fitted curve.

| Structure (SMILES) | Potency | activity change, negative = inhibition |
| --- | --- | --- |
| COc1ccccc1NS(=O)(=O)c1cccc(C(=O)NC2CCN(Cc3ccccc3)CC2)c1 | inactive | – |
| COc1cccc(/C=C/C(=O)OCC(=O)Nc2ccc(Cl)c(S(=O)(=O)N(C)C)c2)c1OC | inconclusive [inhibitor, partial curve] | – |
| COc1ccc(CN2CC(=O)N(c3cc(Cl)ccc3C)C2=S)cc1OC | – | inconclusive: -16% [inhibitor] |
| COC(=O)c1ccc2nc(-c3ccco3)c(Cc3cccc(F)c3)n2c1 | inconclusive [inhibitor, single point] | – |
| CCOC(=O)NC(=O)COC(=O)CCCc1nc2ccccc2s1 | inconclusive [inhibitor, single point] | – |
| Cc1ccc(O)c(-c2cc(-c3ccccc3C)[nH]n2)c1 | inconclusive [inhibitor, partial curve] | – |
| COc1ccc(N(CC(=O)NCCc2ccccc2)C(=O)CCC(=O)Nc2nccs2)cc1 | inconclusive [inhibitor, single point] | – |
| CN(C)CCCN(C(=O)c1ccc(C(=O)c2ccccc2)cc1)c1nc2ccc(F)cc2s1 | inconclusive [inhibitor, partial curve] | – |
| C=CCn1c(SCC(=O)NC2CCCC2)nc2scc(-c3ccco3)c2c1=O | inconclusive [inhibitor, partial curve] | – |
| N#CCC(CNc1ncc(C(F)(F)F)cc1Cl)OC(=O)c1ccc(Cl)cc1 (stereo unspecified) | inconclusive [inhibitor, partial curve] | – |
| COc1ccc(-c2c/c(=N\c3nc(-c4ccccc4)c(C)s3)c3ccccc3o2)cc1O | inconclusive [inhibitor, single point] | – |
| O=C(Cn1nnc(-c2ccccc2)n1)NNC(=O)c1ccc(Br)cc1 | inconclusive [inhibitor, single point] | – |
| CCOC(=O)C(=O)Nc1ccc([N+](=O)[O-])cc1OC | inconclusive [inhibitor, single point] | – |
| CCOc1ccc(/C=C/C(=O)c2cc(Br)ccc(=O)c2O)cc1 | inconclusive [inhibitor, single point] | – |
| CCc1ccc(NS(=O)(=O)c2ccc(OC)c3ncccc23)cc1 | inconclusive [inhibitor, partial curve, poor fit] | – |
| CC(C)(C)c1ccc(NC(=O)COC(=O)c2ccc(NS(=O)(=O)c3ccc(F)c(F)c3)cc2)cc1 | inconclusive [inhibitor, full curve] | – |
| Cc1ccc(C(C2C(=O)CC(C)(C)CC2=O)C2C(=O)CC(C)(C)CC2=O)s1 | inactive | – |
| O=C(NCc1ccc2c(c1)OCO2)Nc1ccc(Cl)cc1 | inactive | – |
| N#C/C(=C\c1cccc(Oc2ccccc2)c1)C(=O)N1CCOCC1 | inconclusive [inhibitor, single point] | – |
| O=C1CC(=O)N(Cc2ccco2)C(=O)N1 | inconclusive [inhibitor, partial curve] | – |
| Cc1ccccc1OCCNCC(C)O (stereo unspecified) | inconclusive [inhibitor, single point] | – |
| CCc1ccc(S(=O)(=O)/N=C2/C=C(Sc3ncn[nH]3)C(=O)c3ccccc32)cc1 | inconclusive [inhibitor, partial curve] | – |

| Structure (SMILES) | Potency | activity change, negative = inhibition |
| --- | --- | --- |
| O=C(Oc1ccc2c(c1)O/C(=C\c1ccncc1)C2=O)c1cccs1 | inactive | – |
| Cc1ccc(-c2csc(/C(C#N)=C(\O)CCl)n2)cc1 | inconclusive [inhibitor, partial curve, poor fit] | – |
| O=C(c1ccc(F)cc1)N1CCCN(c2nc(-c3ccccc3)ns2)CC1 | inconclusive [inhibitor, full curve, poor fit] | – |
| O=C1COc2ccc(S(=O)(=O)CCC(=O)N3CCN(c4cccc(Cl)c4)CC3)cc2N1 | inconclusive [inhibitor, full curve, poor fit] | – |
| CC1C=CCC2C(=O)N(c3cccc(C(=O)NCCc4ccccc4)c3)C(=O)C12 (stereo unspecified) | inconclusive [inhibitor, single point] | – |
| CCN(CC)S(=O)(=O)c1cccc(-c2nnc(SCC(N)=O)n2C)c1 | inconclusive [inhibitor, single point] | – |
| COc1ccc(CN(C)C(=O)c2ccccc2Sc2ccccc2C#N)cc1OC | inconclusive [inhibitor, full curve, poor fit] | – |
| Cc1ccc(Nc2c([N+](=O)[O-])ccc3nonc23)c(C)c1 | inactive | – |
| CCn1c2ccccc2c2cc(NC(=O)c3cc(C)on3)ccc21 | inactive | – |
| COC(=O)C(CCCCNC(=O)c1ccc([N+](=O)[O-])cc1)NC(=O)c1ccc([N+](=O)[O-])cc1 (stereo unspecified) | inconclusive [inhibitor, full curve, poor fit] | – |
| CCC1(C)Cc2c(sc3nc(SC)nc(NCCN(C)C)c23)CO1 (stereo unspecified) | inactive | – |
| O=C1CSC(=Nc2cccc(Cl)c2Cl)N1 | inactive | – |
| Cc1ccc(C)c(NC(=O)CSc2nnc(-c3ccccc3)o2)c1 | inconclusive [inhibitor, single point] | – |
| CSc1ncccc1C(=O)Nc1ccc(S(=O)(=O)NC2=NCCCCC2)cc1 | inactive | – |
| COc1ccc(S(=O)(=O)Nc2cc3c(C(C)=O)c(C)oc3c3ccccc23)cc1 | inactive | – |
| COc1ccc(NC(=O)C(c2ccncc2)n2c(=O)c(-c3cc4ccccc4[nH]3)nc3ccccc32)cc1 (stereo unspecified) | inactive | – |
| COc1cccc(CNC(=O)CCC2CCCN(C(=O)c3cc(C4CC4)[nH]n3)C2)c1 (stereo unspecified) | inactive | – |
| CCOC(=O)CN(C(=O)CSc1nnc(CNc2ccc(C)cc2C)o1)c1ccccc1 | inconclusive [inhibitor, full curve, poor fit] | – |
| COc1ccccc1C(=O)NCC(=O)OCC(=O)c1cccc2ccccc12 | inconclusive [inhibitor, single point] | – |
| COc1cccc(OC)c1C(=O)NNS(=O)(=O)c1ccc2ccccc2c1 | inconclusive [inhibitor, single point] | – |
| O=C1COc2ccc(C(=O)COC(=O)/C=C/c3ccc(Br)o3)cc2N1 | inconclusive [inhibitor, full curve] | – |
| O=C1N/C(=C/c2cccs2)C(=O)N1Cc1ccccc1F | inconclusive [inhibitor, single point] | – |

| Structure (SMILES) | Potency | activity change, negative = inhibition |
| --- | --- | --- |
| CCCc1nc2ccccc2c(=O)n1/N=C/c1ccccc1O | inconclusive [inhibitor, full curve] | – |
| Cc1onc(-c2c(F)cccc2Cl)c1C(=O)OCC(=O)c1c[nH]c2ccccc12 | inconclusive [inhibitor, partial curve, poor fit] | – |
| C(=C\c1ccccc1)/CN1CCN(C(c2cccc3ccccc23)c2nnnn2-c2ccc3c(c2)OCCO3)CC1 (stereo unspecified) | inactive | – |
| COc1ccc(NC(=O)c2cccc3cccnc23)cc1S(N)(=O)=O | inconclusive [inhibitor, single point] | – |
| CCCC[n+]1ccn(C2=C([O-])c3ccccc3C(=O)/C2=N\S(=O)(=O)c2ccccc2)c1 | inconclusive [inhibitor, single point] | – |
| Cc1nc(Cl)sc1C(=O)NC(C)c1ccc(Cl)cc1 (stereo unspecified) | inconclusive [inhibitor, single point] | – |
| CCOc1cc2c(C#N)c(N3CCCC3)nc(N)c2c(N)n1 | inactive | – |
| O=C1c2ccccc2C(=O)N1CCCCSc1nnnn1-c1ccccc1 | inactive | – |
| COc1ccc(Cn2c(CCC(=O)O)nc3cccnc32)cc1 | inactive | – |
| N#CC1=C(N)n2c(s/c(=C\c3ccco3)c2=O)=C(C#N)C1c1ccco1 (stereo unspecified) | inconclusive [inhibitor, single point] | – |
| COc1ccc(C(C(=O)Nc2ccc3c(c2)OCO3)N(C)C(=O)Cc2c[nH]c3ccccc23)cc1 (stereo unspecified) | inconclusive [inhibitor, partial curve] | – |
| Cc1cccc2c1-c1sc(C(=O)Nc3ccccc3N3CCN(C)CC3)cc1CO2 | inactive | – |
| N#C/C(=C\c1ccc(OCc2ccc(C(=O)O)cc2)cc1)C(=O)NCc1ccccc1 | inconclusive [inhibitor, single point] | – |
| Cc1ccc(C)c(NC2CCCCC2NS(=O)(=O)c2ccccc2)c1 (stereo unspecified) | inconclusive [inhibitor, full curve, poor fit] | – |
| COc1ccc(-n2ncc(Cl)c(Cl)c2=O)cc1 | inconclusive [inhibitor, full curve] | – |
| COc1ccc(S(=O)(=O)N2CC(C(=O)O)Oc3ccccc32)cc1 (stereo unspecified) | inconclusive [inhibitor, single point] | – |
| CCc1nc2ccc(C(=O)Nc3cc(-c4ccccc4)ccc3OC)cn2c1N(C)C(=O)c1cccc(OC)c1 | inactive | – |
| CC(C)c1ccc(CC(=O)N2CCC2(C)C(=O)NS(=O)(=O)c2ccc(Cl)s2)cc1 (stereo unspecified) | inconclusive [inhibitor, partial curve, poor fit] | – |
| Cc1cs/c(=N\N=C\c2ccc(O)cc2)n1Cc1ccco1 | inconclusive [inhibitor, full curve, poor fit] | – |
| CCCOc1cc(NCc2ccccc2)c2ncn(C(C)C)c2c1 | inactive | – |
| Cc1cccc(NC(=S)N(Cc2ccc(Br)cc2)Cc2ccc(C(=O)O)cc2)c1 | inconclusive [inhibitor, full curve, poor fit] | – |
| COc1ccc(C=NNC(=O)c2cc(C)oc2C)cc1O | inconclusive [inhibitor, partial curve] | – |
